Assay results taken from the supplement of paper PMC12217912.
Some of the results follow. The full chains were built here from the parent and the listed change. Values near 0.05 are background.

B1: TEV protease; numbered along this chain (parent)
chain: MGESLFKGPRDYNPISSSICHLTNESDGHTTSLYGIGFGPFIITNKHLFRRNNGTLVVQSLHGVFKVKDTTTLQQHLVDGRDMIIIRMPKDFPPFPQKLKFREPQREERICLVTTNFQTKSMSSMVSDTSCTFPSGDGIFWKHWIQTKDGQCGSPLVSTRDGFIVGIHSASNFTNTNNYFTSVPKNFMELLTNQEAQQWVSGWRLNADSVLWGGHKVFMVKPEEPFQPVKEATQL

Variants of: B1
Test: raw area under fraction-flipped curve 0-4 h after induction (AUC4h, not background-subtracted), DNA-recorder readout of cleavage of the substrate (dimensionless); higher = more cleavage of the substrate by the protease variant
Settings: temperature: 34 °C; time window: 0-4 h after rhamnose induction
Experimental: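 In vivo DNA recorder in E. coli TOP10(DE3) ΔrhaA at 34 °C. Each TEVp single-site mutant (parent TEVp 0) is paired with a single-site variant of the 7-mer TEVs (canonical ENLYFQ|S). The substrate sits between flexible linkers in a Bxb1-sfGFP-TEVs-SsrA fusion, so cleavage stabilises Bxb1 and speeds flipping of a recombination array, read by NGS. The value is the raw area under the fraction-flipped curve over 0-4 h after rhamnose induction (AUC4h), with ≥20 reads per time point. It is not background-subtracted; inactive controls average about 0.047.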
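Further: Bxb1 expression induced with 0.2% (w/v) L-rhamnose at OD600 near 0.5, cultures sampled hourly, flipped fraction per protease–substrate barcode pair counted by paired-end Illumina sequencing.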

Variant	area with substrate EALYFQS	area with substrate ECLYFQS	area with substrate EDLYFQS	area with substrate EELYFQS	area with substrate EFLYFQS	area with substrate EGLYFQS	area with substrate EILYFQS	area with substrate EKLYFQS	area with substrate ELLYFQS	area with substrate EMLYFQS	area with substrate EQLYFQS	area with substrate ERLYFQS	area with substrate ESLYFQS	area with substrate EVLYFQS	area with substrate EWLYFQS	area with substrate EYLYFQS	area with substrate EHLYFQS	area with substrate EPLYFQS	area with substrate ETLYFQS
C20N	0.0652	0.0507	0.0708	0.068	0.0679	0.0557	0.0641	0.0623	0.0732	0.0558	0.0716	0.0608	0.0598	0.0472	0.0709	0.0701	–	–	–
W203N	0.0667	0.0518	0.0744	0.0612	–	–	0.054	–	–	0.0638	0.0604	0.0596	0.0527	0.0477	0.0705	–	0.06	0.0439	0.0556
L77Y	0.0753	0.0567	0.074	0.052	–	0.0583	0.0619	0.0599	0.0606	0.0532	0.0566	0.0625	0.0526	0.0641	–	0.0625	–	0.0447	0.0664
I15D	0.113	0.0574	0.108	0.0969	0.0696	0.066	0.0631	0.074	–	–	0.0854	0.0725	0.0821	0.0709	0.0622	–	0.0921	0.0862	0.0932
M219S	0.094	0.0984	0.0992	0.117	–	0.0739	0.0794	0.111	0.106	0.118	0.11	0.127	0.096	0.0916	0.0883	–	0.0974	–	–
M88A	0.103	0.104	0.145	–	0.118	–	0.0654	–	–	–	0.105	–	0.0925	0.0776	0.0899	0.0977	–	0.134	0.129
D82K	0.0546	0.0514	0.0597	0.0663	–	–	–	0.0355	–	0.0498	0.0613	0.0978	0.0491	0.0553	0.0581	–	0.0532	0.0843	0.0836
F226M	0.111	0.117	0.151	0.147	–	–	0.0998	0.117	0.101	–	0.114	0.0884	0.0936	0.0919	0.103	–	0.115	0.132	0.143
D11V	0.083	0.0806	0.101	0.129	0.0668	0.0934	0.0888	0.117	0.0572	0.0887	0.102	0.0909	0.0867	0.0965	0.0817	0.0676	–	–	0.0721
S26L	0.08	0.0711	0.0787	0.0653	–	–	0.0753	0.083	–	0.0744	0.0791	0.0542	0.0734	0.0727	–	–	0.079	–	–
S26W	0.0792	0.0793	0.128	0.0906	–	–	–	0.0537	0.0712	0.0832	0.0716	–	0.0719	0.0712	0.0737	–	0.0747	–	0.0998
H76R	0.104	0.0883	0.0835	0.111	–	–	0.0692	–	–	–	0.0793	0.0596	0.0743	0.0802	–	0.069	–	0.0668	0.0688
N53C	0.0989	0.115	0.104	0.105	–	0.0791	0.074	–	0.0859	–	0.0932	0.087	0.101	–	0.123	0.0907	0.0978	0.0432	–
K221F	0.0965	0.0879	0.104	0.0958	–	0.0732	0.0818	0.094	0.089	0.108	0.0698	0.0786	0.0874	0.077	0.0964	0.0862	0.0624	0.0935	0.0565
N116S	0.113	0.163	0.142	0.149	–	–	0.104	–	–	–	–	0.0901	0.116	0.0975	0.109	–	–	–	–
D27W	0.109	0.0827	0.0901	–	–	0.0954	0.0731	0.0955	0.0712	–	0.109	0.0923	0.0901	0.117	–	0.085	0.0754	–	–
S121M	0.117	0.102	0.117	0.141	0.112	0.0736	0.0776	–	0.0855	–	0.119	–	0.109	0.088	0.095	0.102	0.0899	0.0991	0.0153
P89N	0.137	0.075	0.0946	–	–	0.0757	0.0647	0.0796	0.0696	0.0962	0.0744	0.0987	0.0817	0.0787	0.0755	–	0.0825	0.134	–
L156E	0.0628	0.0446	0.0596	0.0408	–	0.0601	0.048	0.0257	0.0816	0.0564	0.095	0.0556	0.058	0.0513	–	0.051	0.0489	0.0656	–
R81C	0.0925	0.0955	0.0762	0.0704	–	0.0726	0.0937	0.0953	0.0782	0.101	0.0933	0.0981	0.0909	0.0665	0.113	–	0.079	0.108	0.0912
Q59I	0.116	0.12	0.12	0.0913	0.102	–	0.0906	–	0.0897	0.104	0.155	0.1	0.104	0.0863	0.0837	–	–	0.114	0.132
Q146C	0.133	0.138	0.174	0.0931	0.117	–	0.113	0.158	0.113	0.143	0.177	–	0.177	0.0762	0.0902	–	0.126	0.144	0.165
T70E	0.0988	0.0677	0.0938	–	0.0708	–	0.0718	0.0854	0.0715	0.0966	0.0805	0.069	0.0077	0.0668	–	–	0.0503	0.0616	0.0764
K46A	0.106	0.123	0.159	0.159	–	0.109	0.0953	0.138	0.12	0.125	0.122	–	0.125	0.127	0.153	0.151	0.153	–	0.0917
